Measurements published in PubChem BioAssay AID485281 (National Center for Advancing Translational Sciences (NCATS), 2010).
Hit rate of the full screen: of about 350,000 compounds, about 260 (0.074%) were called active. This list was built around the results that the source calls inconclusive (neither active nor inactive); the mix of calls is not that of the screen. The call rests on the fitted dose curve; in most records, active means well fitted inhibition curve with a large enough effect; inconclusive means small, poorly fitted or top-dose-only effect; inactive means no such curve, though single readings can be large or run the other way. Where the call is inconclusive, the potency comes from a doubtful curve fit.

biological target: Ferritin light chain (Equus caballus) (UniProt P02791); assay: qHTS Assay for Identification of Novel General Anesthetics; details: apoferritin/1-aminoanthracene competitive binding, fluorescence; series mostly up to 77.5 µM; further: nearly all actives have a fitted effect of over 20% in size
UniProt P02791, sequence (P02791 whole entry, looked up): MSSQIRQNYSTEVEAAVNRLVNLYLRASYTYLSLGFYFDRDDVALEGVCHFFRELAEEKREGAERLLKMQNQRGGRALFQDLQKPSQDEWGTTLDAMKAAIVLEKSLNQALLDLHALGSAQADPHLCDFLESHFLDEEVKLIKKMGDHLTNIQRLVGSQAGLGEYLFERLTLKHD
How it was run: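 Steps: apoferritin (10 uM) was premixed with half-saturated 1-AMA in PBS, compounds were pin-transferred, plates stood 10 min at room temperature, fluorescence was read at 380/535 nm, and curves were fitted with a Hill equation.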
Potency means the concentration at half of the fitted maximal effect; tags describe the fitted curve by direction and shape.

Potency, inconclusive:
COCC1CCCN(C(=O)c2cc(COc3cccc4cccnc34)on2)C1 (centres undefined) 35.5 µM [inhibitor, partial curve]
COc1ccccc1-c1cn(C(C)(C)C)nc1C 11.2 µM [inhibitor, partial curve]
Cc1cccc(-n2cc(CN3CCCN(C=O)CC3)c(-c3cccc(F)c3)n2)c1 5.62 µM [inhibitor, full curve]
Cc1nnc(N2CCC(C(=O)NCc3cccc(Cl)c3)CC2)c2nn(-c3ccccc3)c(C)c12 28.2 µM [inhibitor, partial curve]
O=C(COC(=O)C1CCCCC1C(=O)N1CCc2ccccc21)NCc1ccco1 (centres undefined) 31.6 µM [inhibitor, partial curve]
CCOC(=O)c1c(NC(=O)COC(=O)Cn2cnc3ccccc32)sc(C)c1C 25.1 µM [inhibitor, partial curve]
CCOC(=O)C1=C(CS(=O)(=O)c2ccc(F)c(C)c2)NC(=O)NC1c1ccc(F)c(F)c1 (centres undefined) 15.8 µM [inhibitor, partial curve]
Cc1ccccc1C(=O)c1cccn1CC(=O)NCCCc1ccccc1 14.1 µM [inhibitor, partial curve]
O=C(CCc1ccccc1)Nc1ccccc1C(F)(F)F 28.2 µM [inhibitor, partial curve]
O=C(NC(=S)NCc1ccco1)c1ccccc1 17.8 µM [inhibitor, partial curve]
COc1ccc(OC)c(CCNc2ncnc3onc(C)c23)c1 0.794 µM [inhibitor, full curve, poor fit]
CCOc1ccc2[nH]c(=O)c(CN(CCN3CCCC3)C(=S)Nc3ccccc3OCC)cc2c1 7.94 µM [inhibitor, partial curve]
Cc1c(Cc2ccccc2)sc(NC(=O)C(C)(C)C)c1C(N)=O 35.5 µM [inhibitor, single point]
S=c1[nH]nc(-c2cc(-c3ccccc3)n[nH]2)n1/N=C/c1cccc(Cl)c1 50.1 µM [inhibitor, single point]
Cc1ccc(C(=O)OCC(=O)Nc2ncc(Cl)cc2Cl)cc1NC(=O)c1ccco1 35.5 µM [inhibitor, single point]
Nc1nnc(-c2ccccc2Cl)s1 35.5 µM [inhibitor, partial curve]
O/N=C(/CCc1ccccc1)c1ccc2c(c1)OCCO2 31.6 µM [inhibitor, partial curve]
Nc1ccc(SCC(=O)Nc2cccc([N+](=O)[O-])c2)cc1 35.5 µM [inhibitor, partial curve]
Cc1cccc(NC(=O)c2ccccc2NC(=O)Cc2ccccc2)c1C 28.2 µM [inhibitor, partial curve]
O=C(COc1ccccc1)NCC(=O)N/N=C/c1ccc(Br)cc1 2.82 µM [inhibitor, full curve]
Cc1ccc(-c2ccc(/C=C3/NC(=O)NC3=O)o2)cc1[N+](=O)[O-] 22.4 µM [inhibitor, partial curve, poor fit]
COc1cccc(C(=O)Oc2cc3c4c(c2)C(C)=CC(C)(C)N4C(=O)C3=O)c1 39.8 µM [inhibitor, partial curve]
C=C(C)CSc1ncc(-c2cccc(C(F)(F)F)c2)cn1 14.1 µM [inhibitor, partial curve]
COc1ccccc1C(=O)NNC(=O)c1ccc2ccccc2c1 39.8 µM [inhibitor, partial curve]
CCc1ccc(C(=O)Nc2cc(C)ccc2F)s1 25.1 µM [inhibitor, partial curve]
COc1ccc(NC(=O)CCCN2C(=O)C(c3ccccc3)Oc3cccnc32)cc1OC (centres undefined) 35.5 µM [inhibitor, single point]
Cc1cc(C)cc(OC(=O)CCN2C(=O)C3C4C=CC(C5CC45)C3C2=O)c1 (centres undefined) 39.8 µM [inhibitor, single point]
Cc1cc(C)c(C)c(Oc2ncnc(N)c2[N+](=O)[O-])c1 3.55 µM [inhibitor, full curve]
N/C(COc1cccc(C(F)(F)F)c1)=N\NC(=O)c1cccnc1Oc1ccccc1 39.8 µM [inhibitor, partial curve]
Cc1ccccc1CSCCNC(=O)Nc1ccccc1 17.8 µM [inhibitor, partial curve]
O=C(Nc1cccn(Cc2cccc(F)c2)c1=O)NC1CCCCC1 31.6 µM [inhibitor, partial curve]
CCCCCCCC(=O)Nc1cc(C(=O)NCc2ccc(C)cc2)ccc1N1CCC2(CC1)CC(c1ccccc1)=NO2 44.7 µM [inhibitor, single point]
CCCn1c(=N)n(CC(=O)c2ccc([N+](=O)[O-])cc2)c2ccccc21 14.1 µM [inhibitor, partial curve]
CC(=O)NC1C(c2nc3ccccc3s2)=C(c2ccccc2)C(=O)N1c1ccc(C)cc1 (centres undefined) 4.47 µM [inhibitor, full curve, poor fit]
COc1cc(CNCC(O)c2ccccc2)ccc1OCc1ccc(Cl)nc1 (centres undefined) 35.5 µM [inhibitor, partial curve]
CCN(CC)c1ccc(N=Nc2ncn[nH]2)cc1 31.6 µM [inhibitor, partial curve]
O=S1(=O)C=C(SCc2ccccc2)Nc2ccccc21 17.8 µM [inhibitor, partial curve]
Cc1c2cnn(CC(=O)N3CCCCC3)c(=O)c2c(C)n1Cc1ccc(Cl)cc1 7.94 µM [inhibitor, partial curve]
N#Cc1ccc(N2CCc3ccccc3C2)c([N+](=O)[O-])c1 28.2 µM [inhibitor, partial curve]
COC(=O)C1=C(C)NC(C)=C(C(=O)OCCCN2CCC(c3ccccc3)(c3ccccc3)CC2)C1c1cccc([N+](=O)[O-])c1 (centres undefined) 7.08 µM [inhibitor, partial curve]
CCOC(=O)/C=C/C(=O)Nc1ccc(S(=O)(=O)N2CCc3ccccc32)cc1 28.2 µM [inhibitor, single point]
CCCCCCCCCCCCS[C@H]1CS(=O)(=O)C[C@@H]1O 22.4 µM [inhibitor, single point]
COc1ccc(/C=C(\C#N)C(=O)c2c(C)[nH]c3ccccc23)cc1OC 39.8 µM [inhibitor, single point]
C/C(=C\C(=O)c1ccc(F)cc1)NCc1ccc2c(c1)OCO2 17.8 µM [inhibitor, partial curve]
Cc1sc2ncn(CC(=O)NCc3ccco3)c(=O)c2c1-c1ccccc1 8.91 µM [inhibitor, partial curve]
CCCCc1ccc(N=N/C(C(=O)Nc2ccc(NC(C)=O)cc2OC)=C(/C)O)cc1 6.31 µM [inhibitor, full curve]
CCn1cc(Cl)c(C(=O)N2N=C3/C(=C/c4cccs4)CCCC3C2c2cccs2)n1 (centres undefined) 0.794 µM [inhibitor, full curve, poor fit]
CCn1c(CSc2nc3ccccc3s2)nnc1SCC(=O)c1ccc(O)c(O)c1 28.2 µM [inhibitor, partial curve]

Potency, inactive:
COc1ccc(CCNC(=S)Nc2ccc(C(C)C)cc2)cc1
CCCc1ccc2oc(C(=O)NCCc3nc(C(=O)OCC)cs3)c(C)c2c1
CCOc1cc(/C=N/Nc2ncc(C)c(=O)[nH]2)ccc1O
CCn1nccc1C(=O)Nc1ccccc1OC
COc1ccc(NS(=O)(=O)c2cc(-c3cnc(C4CC4)o3)ccc2C)cc1
Cc1nc(-c2cccs2)sc1C(=O)NN
CCOc1ccc(NC(=S)NCc2ccc3[nH]c(C)cc3c2)cc1
COc1cccc(Nc2ncnc3sccc23)c1
C=C1CCN(C(CC(C)C)C(=O)NN2CCOCC2)S(=O)(=O)c2ccccc21 (centres undefined)
Cc1cc(N2CCN(C)CC2)nc2ccc(NC(=O)Nc3ccccc3Cl)cc12
COc1ccc2ccccc2c1/C=N/N1C(=O)CSC1=S
CCc1ccc(OCC2c3cc(OC)c(OC)cc3CCN2C(=O)Cc2ccc(OC)c(OC)c2)cc1 (centres undefined)
COc1ccc(CCC(=O)NCCc2csc(-c3cccc(F)c3)n2)cc1
O=C(CN1CCCCC1)N1CCN(c2ccccc2)CC1
Cc1cc(C)cc(N(CC(=O)Nc2cc(C)ccc2C)S(=O)(=O)c2c(C)[nH]c(=O)[nH]c2=O)c1
O=[N+]([O-])c1nn(-c2ccc3c(c2)OCCO3)n(O)c1=NC1CCCCCC1
CC(Oc1ccc(Cl)cc1Cl)C(=O)Nc1ccc(S(=O)(=O)Nc2cnc3ccccc3n2)cc1 (centres undefined)
CNc1oc(-c2ccc(Cl)cc2)nc1C#N
CCN1CCc2c(sc(NC(=O)CSc3ccccc3)c2-c2nc3ccccc3s2)C1
CC(=O)c1cccc(Nc2cc(C)nc3nc(-c4ccccc4C)nn23)c1
O=C(CCC(=O)OCC(=O)c1ccccc1)NC1CCCCC1
